Measurements reported in PubChem BioAssay AID485294 (National Center for Advancing Translational Sciences (NCATS), 2010).
Out of some 370,000 compounds screened, about 150 (0.041%) were called active. Inconclusive results, whose numbers are uncertain, are shown with a selection of clear calls. The call rests on the fitted dose curve; in most records, active means well fitted inhibition curve with a large enough effect; inconclusive means small, poorly fitted or top-dose-only effect; inactive means flat fitted curve, though single readings scatter. Potencies of inconclusive entries are left out as doubtful fits.

The compounds below were run against Beta-lactamase (Escherichia coli (strain K12)) (UniProt P00811) (assay: qHTS Inhibitors of AmpC Beta-Lactamase (assay with detergent)). Conditions: AmpC hydrolysis of nitrocefin, absorbance 480 nm, 0.01% Triton; series mostly up to 114 µM.
Method: NIH Molecular Libraries Probe Production Network [MLPCN] NIH Chemical Genomics Center [NCGC] Assay Provider: Professor Brian Shoichet, UCSF Assay Overview: This aggregation profiling approach exploits the sensitivity of aggregate formation to detergent. Inhibition of b-lactamase is measured in the presence and absence of 0.01% Triton X-100. This particular assay had the prescence of 0.01% Triton X-100. See Pubchem assay "Promiscuous and Specific Inhibitors of AmpC Beta-Lactamase (assay without detergent)" for related screen. Compounds that inhibit only in the absence of detergent are considered likely promiscuous aggregators. A screen of 1,030 compounds was performed in Brian Shoichet's lab in 96-well format. AmpC activity was measured by following the absorbance at 480 nm. Nitrocefin is a chromogenic substrate: while nitrocefin is yellow (lmax 390 nm), the product of its hydrolysis is red (lmax 486 nm, 17,000 M-1). AmpC beta lactamase was provided by Shoichet Lab, UCSF.
Buffer: 20 mM phosphate buffer, pH 7.0 Triton X-100: No Detergent screen: 0.0001%, Detergent screen: 0.01%. Reagents/Controls: Buffer in columns 3 and 4 as negative control (no enzyme). 5.3 nM AmpC in columns 1, 2, 5-48. Titration of UCSF compound 9 control (from 10 mM, then 1:2) pin-transferred to column 2. Column 1 is neutral (100% activity). Assay Steps: Six uL of reagents were dispensed to 1536-well Greiner black clear bottom plates. Compounds and controls (23 nL) were transferred via Kalypsys PinTool. The plates were incubated for 15 min at room temperature, and then 2 uL of 800 uM solution of nitrocefin was added to start the reaction. The plates were immediately transferred to and read every 20 seconds for 4 min on ViewLux (Perkin-Elmer) High-throughput CCD imager using 480 nm absorbance protocol. During dispense, reagent bottles were kept submerged into 4 deg C water bath. Keywords: NIH Roadmap, MLSCN, MLI, MLSMR, qHTS, NCGC, AmpC Beta-Lactamase, Aggregation
Further: nearly all actives have a fitted effect of over 25% in size.
Potency means the concentration at half of the fitted maximal effect; tags describe the fitted curve by direction and shape.

Sequence of UniProt P00811 (P00811 whole entry, looked up): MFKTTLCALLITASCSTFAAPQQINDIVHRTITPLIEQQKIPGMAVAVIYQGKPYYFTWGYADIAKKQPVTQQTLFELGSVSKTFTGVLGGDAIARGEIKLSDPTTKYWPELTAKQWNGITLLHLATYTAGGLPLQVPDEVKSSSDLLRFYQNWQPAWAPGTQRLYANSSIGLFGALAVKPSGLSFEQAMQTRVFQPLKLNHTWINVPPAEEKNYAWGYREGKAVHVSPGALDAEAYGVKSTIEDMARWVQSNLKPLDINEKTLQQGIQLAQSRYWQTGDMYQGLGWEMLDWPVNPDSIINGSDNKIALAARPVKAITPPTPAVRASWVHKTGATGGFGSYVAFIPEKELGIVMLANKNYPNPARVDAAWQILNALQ

Compound	Potency
O=C(Nc1ccccc1)c1cccnc1Nc1ccccc1	inconclusive [inhibitor, partial curve]
COc1cc(NC(=O)c2ccccc2-n2cnnn2)cc(OC)c1	inconclusive [inhibitor, full curve, poor fit]
O=c1c2ccccc2nc(-c2ccc(Br)cc2)n1Cc1ccccc1	inconclusive [inhibitor, single point]
Cn1c(Cn2c(=O)sc3ccccc32)nnc1SCc1cccc(F)c1	inconclusive [inhibitor, full curve, poor fit]
COCCCN1C(=O)C(=O)/C(=C(/O)c2ccccc2)C1c1ccc2c(c1)OCO2 (stereo not given)	inconclusive [inhibitor, partial curve, poor fit]
O=S(=O)(c1ccc2c(c1)OCCO2)N1CCc2ccccc21	inconclusive [inhibitor, full curve]
COc1cc(/C=C(/C(=O)c2cccs2)c2nc3ccccc3[nH]2)cc(OC)c1O	inconclusive [inhibitor, partial curve]
CCCCn1c(SCC(=O)N2CC(C)CC(C)C2)nc2cc(S(N)(=O)=O)ccc21 (stereo not given)	inconclusive [inhibitor, partial curve, poor fit]
c1ccc(COc2ccc(OCCCN3CCCC3)cc2)cc1	inactive
Cc1nnc(SCC(=O)N2c3ccccc3Sc3ccccc32)n1N	inconclusive [inhibitor, single point]
Cc1ccc(NC(=O)c2cccc(N3CCCS3(=O)=O)c2)cc1C	inactive
CCOC(=O)c1c(C)[nH]c(C(=O)COC(=O)C2CC(=O)N(Cc3ccccc3)C2)c1C (stereo not given)	inconclusive [inhibitor, single point]
CCOC(=O)C1CCCN(C(=O)c2cc(COc3ccc(C)nc3)on2)C1 (stereo not given)	inactive
O=C(/C=C\c1ccc(-c2ccccc2)o1)c1ccccc1	inconclusive [inhibitor, single point]
O=C(CCSc1nc(-c2ccco2)cc(C(F)(F)F)n1)N1CCCc2ccccc21	inconclusive [inhibitor, full curve, poor fit]
Cc1[nH]c(=O)[nH]c(=O)c1CSc1nnc([C@H](CC(C)C)NC(=O)OC(C)(C)C)o1	inconclusive [inhibitor, partial curve, poor fit]
O=C(Nc1ccc(Br)cc1)C1CCCN1S(=O)(=O)c1cccs1 (stereo not given)	inconclusive [inhibitor, full curve, poor fit]
Cc1ccc(-c2nc3cc(NS(=O)(=O)c4ccc(C)cc4)ccc3o2)cc1	inconclusive [inhibitor, full curve, poor fit]
C#CCSc1ncc(S(=O)(=O)c2ccccc2)c(=O)[nH]1	inconclusive [inhibitor, full curve, poor fit]
COc1ccc(-c2nc(CN3CCN(Cc4cccc(F)c4)CC3)c(C)o2)cc1	inconclusive [inhibitor, full curve, poor fit]

Compound	Potency
Cc1cc(=O)oc2c3c(cc(OCC(=O)NCC(=O)N[C@H](C(=O)O)C(C)C)c12)OC(C)(C)CC3	inconclusive [inhibitor, full curve, poor fit]
CC(C)Cn1c(CN2CCN(c3ccccc3F)CC2)nc2c1c(=O)[nH]c(=O)n2C	inconclusive [inhibitor, full curve, poor fit]
COC(=O)c1ccc(NC(=O)CNc2ccccc2)cc1	inactive
CCOc1cc(N2CCOCC2)c(OCC)cc1NC1=NCCCCC1	inconclusive [inhibitor, partial curve]
CCOc1ccc(N2CCCn3c2nc2c3c(=O)n(CCc3ccccc3)c(=O)n2C)cc1	inconclusive [inhibitor, full curve, poor fit]
COc1cccc(NC(=O)c2ccccc2Oc2ccccc2)c1	inconclusive [inhibitor, full curve, poor fit]
C=C(C)CSC1=C(C#N)C(c2ccsc2)CC(=O)N1 (stereo not given)	inconclusive [inhibitor, full curve, poor fit]
Cc1ccc(C(=O)NNC(=O)C2CCN(S(=O)(=O)c3ccc(Cl)cc3)CC2)cc1	inconclusive [inhibitor, full curve]
CCCN1CCN(CCCNC(=O)c2ccc3c(c2)NC(=O)c2ccccc2S3)CC1	inconclusive [inhibitor, partial curve]
CC(NC(=O)/C(C#N)=C/c1ccc(OCC(=O)O)cc1)c1ccccc1 (stereo not given)	inconclusive [inhibitor, full curve, poor fit]
C/C(=N\NC(=O)c1cc(-c2ccc(C)s2)nc2ccccc12)c1cccnc1	inconclusive [inhibitor, partial curve]
O=C(N=C1c2ccccc2CN1c1cccc(Cl)c1)c1cccnc1	inconclusive [inhibitor, full curve]
CC(C)n1c(SCC(=O)Nc2ccccc2N2CCOCC2)nc2c1c(=O)n(C)c(=O)n2C	inactive
COc1ccc(NC(=O)C2CCN(S(=O)(=O)c3ccc(OC)c(OC)c3)CC2)c(OC)c1	inconclusive [inhibitor, partial curve]
CCOc1ccc(C(=O)N2CCC(C(=O)c3ccc4c(c3)OCCO4)CC2)cc1	inactive
Cc1ccccc1NC(=O)C(=O)NCC1(c2ccccc2)CCCC1	inactive
O=C(Nc1cc(Cl)ccc1N1CCCC1)C1=NN(c2ccccc2)C(=O)CC1	inconclusive [inhibitor, single point]
Cc1ccc(S(=O)(=O)N2CCN(C(=O)COC(=O)C3(C)CC3(Cl)Cl)CC2)c(C)c1 (stereo not given)	inactive
CSc1ccccc1NC(=O)Nc1ccc(Cl)cc1	inconclusive [inhibitor, full curve, poor fit]
O=C(COc1ccccc1)Nc1ccccc1N1CCN(c2ccc(F)cc2)CC1	inactive
